Measurements from PubChem BioAssay (NCATS).
“And” between values parts separate entries of the source, which are not always exact repeats. Equal values may be shown once. The inconclusive results got no clear call from the source; some entries with a clear call stand among them for comparison. For some of these results: No potency is given beside an inconclusive call; the fits are too rough. For some of these results: A note “side channel” means that the fit belongs to a control or component signal, not to the main read-out. The source made the active and inactive calls. Unless noted, calls follow the shape of the full dose curve.

Key:
[1] = target: Estrogen receptor (Homo sapiens) (UniProt P03372); assay: qHTS assay for small molecule antagonists of estrogen receptor alpha signaling (AID 588513; active = well fitted curve in the direction sought with a large enough effect in the signal ratio, with a control signal flat, not every such curve was filed as active; inconclusive = small, poorly fitted or top-dose-only effect, or effect the other way, or a change in a side signal; inactive = no such curve, though single readings can be large or run the other way; the % refers to the signal ratio; also: % is scaled to controls: 0 for no effect and ±100 for the full control effect); conditions: ER-alpha-UAS-bla HEK293, beta-lactamase ratio, antagonist mode; activity, negative = inhibition: at 76.9 µM (top of the series) unless noted
Sequence of UniProt P03372 (P03372 whole entry, looked up): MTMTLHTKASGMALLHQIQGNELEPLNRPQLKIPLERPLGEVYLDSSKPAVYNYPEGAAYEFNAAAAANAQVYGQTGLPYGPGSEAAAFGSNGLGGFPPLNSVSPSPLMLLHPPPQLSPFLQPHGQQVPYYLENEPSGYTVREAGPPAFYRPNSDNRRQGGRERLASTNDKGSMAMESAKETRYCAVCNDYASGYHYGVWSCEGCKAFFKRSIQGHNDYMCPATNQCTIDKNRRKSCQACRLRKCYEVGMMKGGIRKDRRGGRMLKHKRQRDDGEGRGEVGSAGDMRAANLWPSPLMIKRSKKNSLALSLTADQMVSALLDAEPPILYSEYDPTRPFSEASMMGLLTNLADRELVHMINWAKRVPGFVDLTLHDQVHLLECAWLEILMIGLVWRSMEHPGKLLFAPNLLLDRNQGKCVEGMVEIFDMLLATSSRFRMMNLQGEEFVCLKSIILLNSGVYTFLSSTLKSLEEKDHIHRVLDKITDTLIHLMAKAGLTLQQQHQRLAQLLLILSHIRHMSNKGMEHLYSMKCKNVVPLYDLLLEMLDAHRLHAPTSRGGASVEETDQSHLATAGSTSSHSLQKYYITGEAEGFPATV
In short: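 ER-alpha-UAS-bla GripTite HEK 293 cells in medium with 2% charcoal/dextran-treated FBS were preincubated 4 h at 37 C, dosed with compound (1:2 titration), stimulated with 0.5nM 17-beta-estradiol for 18 h, then read by CCF4 beta-lactamase fluorescence.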

[2] = target: Bile acid receptor (Homo sapiens) (UniProt Q96RI1); assay: qHTS assay for small molecule antagonists of farnesoid X receptor signaling (AID 588526); conditions: HEK293T FXR-UAS-bla, beta-lactamase ratio, antagonist mode; activity change, negative = inhibition: at 76.7 µM (top of the series); also: potency is read from the fitted curve at half-maximal effect
In short: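 Antagonist mode: titrated compounds tested against chenodeoxycholic acid stimulation (normalized to 50 uM CDCA and DMSO) in GeneBLAzer HEK293T cells for 16 h. Beta-lactamase read by CCF4 fluorescence; IC50 from Hill fits.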

[3] = target: Bile acid receptor (Homo sapiens) (UniProt Q96RI1); assay: qHTS assay for small molecule agonists of farnesoid X receptor signaling (AID 588527); conditions: HEK293T FXR-UAS-bla, beta-lactamase ratio, 16 h; activation: stronger effect = higher value; also: potency is read from the fitted curve at half-maximal effect
In short: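 Agonist-mode beta-lactamase reporter in GeneBLAzer FXR-UAS-bla HEK293T cells, titration up to 92 uM, 16 h exposure at 37 C, CCF4 fluorescence. Response scaled to DMSO (0%) and 100 uM chenodeoxycholic acid (100%), then Hill-fitted for EC50 and efficacy.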

[4] = target: Peroxisome proliferator-activated receptor delta (Homo sapiens) (UniProt Q03181); assay: qHTS assay for small molecule agonists of peroxisome proliferator-activated receptor delta signaling (AID 588534); conditions: HEK293T PPARdelta-UAS-bla, beta-lactamase ratio, 18 h; activation: at 76.7 µM (top of the series); also: potency is read from the fitted curve at half-maximal effect
Sequence of UniProt Q03181 (Q03181 whole entry, looked up): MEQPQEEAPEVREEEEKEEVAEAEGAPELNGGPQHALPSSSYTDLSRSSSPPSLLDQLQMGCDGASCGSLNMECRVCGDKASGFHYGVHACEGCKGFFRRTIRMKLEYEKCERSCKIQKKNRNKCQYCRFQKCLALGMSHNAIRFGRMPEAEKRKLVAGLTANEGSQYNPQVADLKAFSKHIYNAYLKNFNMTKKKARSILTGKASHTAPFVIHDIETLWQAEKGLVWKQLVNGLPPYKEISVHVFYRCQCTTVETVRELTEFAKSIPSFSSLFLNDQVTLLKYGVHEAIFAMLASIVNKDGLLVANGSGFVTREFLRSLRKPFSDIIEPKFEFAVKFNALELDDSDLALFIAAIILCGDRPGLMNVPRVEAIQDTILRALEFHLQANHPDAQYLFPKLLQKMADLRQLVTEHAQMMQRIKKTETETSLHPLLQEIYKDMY
In short: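 Agonist-mode qHTS; reporter cells, 5 hrs 37 C pre-incubation; compound titration, 18 hrs 37 C; CCF4 dye, 2 hrs RT; fluorescence read. EC50/efficacy via Hill fit.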

[5] = target: Peroxisome proliferator-activated receptor delta (Homo sapiens) (UniProt Q03181); assay: qHTS assay for small molecule antagonists of peroxisome proliferator-activated receptor delta signaling (AID 588535; active = well fitted inhibition curve with a large enough effect in the signal ratio, with a control signal flat, not every such curve was filed as active; inconclusive = small, poorly fitted or top-dose-only effect, or effect the other way, or a change in a side signal; inactive = no such curve, though single readings can be large or run the other way; the % refers to the signal ratio); conditions: HEK293T PPARd-UAS-bla, beta-lactamase FRET ratio, 18 h; activity change, negative = inhibition: at 76.7 µM (top of the series) unless noted
In short: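 Fluorescence from CCF4-loaded GeneBLAzer PPAR-delta-UAS-bla HEK293T cells (2 hrs RT loading) quantified reporter inhibition after an 18 hr, 37 C compound exposure across a titration.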

[6] = target: Peroxisome proliferator-activated receptor gamma (Homo sapiens) (UniProt P37231); assay: qHTS assay for small molecule agonists of peroxisome proliferator-activated receptor gamma signaling (AID 588536; active = well fitted curve in the direction sought with a large enough effect in the signal ratio, with a control signal flat, not every such curve was filed as active; inconclusive = small, poorly fitted or top-dose-only effect, or effect the other way, or a change in a side signal; inactive = no such curve, though single readings can be large or run the other way; the % refers to the signal ratio; also: potency is read from the fitted curve at half-maximal effect;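 as to activation: 0% = DMSO basal wells and 100% = rosiglitazone at 2 µM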); conditions: HEK293 PPARg-UAS-bla, beta-lactamase ratio, 16 h; activation: at 76.7 µM (top of the series), percent of rosiglitazone response, DMSO as zero unless noted
In short: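 This is an agonist-mode beta-lactamase reporter assay in HEK293 PPAR-gamma-UAS-bla cells with 1% charcoal/dextran FBS. Compound titrations ran 16 h at 37 C before CCF4 detection. EC50 and efficacy are Hill fits scaled to 2 uM rosiglitazone (100%) and DMSO basal.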

[7] = target: Peroxisome proliferator-activated receptor gamma (Homo sapiens) (UniProt P37231); assay: qHTS assay for small molecule antagonists of peroxisome proliferator-activated receptor gamma signaling (AID 588537; active = well fitted inhibition curve with a large enough effect in the signal ratio, with a control signal flat, not every such curve was filed as active; inconclusive = small, poorly fitted or top-dose-only effect, or effect the other way, or a change in a side signal; the % refers to the signal ratio;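 also: reporter cells co-stimulated with 50 nM rosiglitazone agonist during compound treatment; potency is read from the fitted curve at half-maximal effect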); conditions: HEK293 PPARg-UAS-bla, beta-lactamase ratio, antagonist mode; activity, negative = inhibition: at 76.8 µM (top of the series)
In short: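 Fluorescence at 460 and 530 nm (405 nm excitation) reported beta-lactamase cleavage of CCF4 after 2 h room-temperature loading. HEK293 reporter cells in 1% charcoal/dextran-treated FBS had received compound and rosiglitazone for 16 h.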

[8] = target: Vitamin D3 receptor (Homo sapiens) (UniProt P11473); assay: qHTS assay for small molecule antagonists of vitamin D receptor signaling (AID 588541); conditions: HEK293T VDR-UAS-bla, beta-lactamase ratio, antagonist mode; activity change, negative = inhibition: at 76.7 µM (top of the series);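 also: receptor activated by calcitriol during compound treatment; % is scaled to controls: 0 for no effect and ±100 for the full control effect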
[9] = target: Retinoic acid receptor RXR-alpha (Homo sapiens) (UniProt P19793); assay: qHTS assay for small molecule agonists of retinoid X receptor alpha signaling (AID 588544); conditions: HEK293T RXRa-UAS-bla, beta-lactamase reporter, 18 h; activation: at 76.7 µM (top of the series) unless noted;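 also: 0% = DMSO basal wells and 100% = reference agonist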
Sequence of UniProt P19793 (P19793 whole entry, looked up): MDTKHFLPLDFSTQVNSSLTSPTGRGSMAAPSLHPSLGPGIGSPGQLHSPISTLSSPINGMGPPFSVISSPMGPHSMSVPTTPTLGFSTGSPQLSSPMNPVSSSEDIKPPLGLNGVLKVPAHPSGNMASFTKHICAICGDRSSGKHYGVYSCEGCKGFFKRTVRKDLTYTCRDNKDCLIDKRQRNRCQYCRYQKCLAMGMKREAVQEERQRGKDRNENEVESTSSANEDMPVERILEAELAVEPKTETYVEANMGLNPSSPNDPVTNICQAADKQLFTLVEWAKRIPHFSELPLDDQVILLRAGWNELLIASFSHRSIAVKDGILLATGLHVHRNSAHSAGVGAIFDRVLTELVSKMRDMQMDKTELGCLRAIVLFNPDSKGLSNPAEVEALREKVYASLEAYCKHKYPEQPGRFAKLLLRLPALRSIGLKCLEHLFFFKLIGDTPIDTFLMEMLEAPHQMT

[10] = target: Retinoic acid receptor RXR-alpha (Homo sapiens) (UniProt P19793); assay: qHTS assay for small molecule antagonists of retinoid X receptor alpha signaling (AID 588546; active = well fitted inhibition curve with a large enough effect in the signal ratio, with a control signal flat, not every such curve was filed as active; inconclusive = small, poorly fitted or top-dose-only effect, or effect the other way, or a change in a side signal; inactive = no such curve, though single readings can be large or run the other way; the % refers to the signal ratio;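 also: cells stimulated with 9-cis-retinoic acid as agonist; % is scaled to controls: 0 for no effect and ±100 for the full control effect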); conditions: HEK293T RXRa-UAS-bla, beta-lactamase ratio, antagonist mode
In short: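 Beta-lactamase reporter inhibition, read as CCF4 fluorescence ratio (ex 405, em 460/530 nm) after 2 h at RT. HEK293T UAS-bla cells, 2500/well, were stimulated with 9-cis-RA at 500 or 100 nM final alongside test compound for 18 h at 37 C.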

[11] = target: Thyroid hormone receptor beta (Homo sapiens) (UniProt P10828); assay: qHTS assay for small molecule antagonists of thyroid hormone receptor beta signaling (AID 588547; active = well fitted inhibition curve with a large enough effect in the signal ratio, with a control signal flat, not every such curve was filed as active; inconclusive = small, poorly fitted or top-dose-only effect, or effect the other way, or a change in a side signal; the % refers to the signal ratio; also: potency is read from the fitted curve at half-maximal effect); conditions: TR-UAS-bla HEK293, beta-lactamase ratio, antagonist mode, 18 h
Sequence of UniProt P10828 (P10828 whole entry, looked up): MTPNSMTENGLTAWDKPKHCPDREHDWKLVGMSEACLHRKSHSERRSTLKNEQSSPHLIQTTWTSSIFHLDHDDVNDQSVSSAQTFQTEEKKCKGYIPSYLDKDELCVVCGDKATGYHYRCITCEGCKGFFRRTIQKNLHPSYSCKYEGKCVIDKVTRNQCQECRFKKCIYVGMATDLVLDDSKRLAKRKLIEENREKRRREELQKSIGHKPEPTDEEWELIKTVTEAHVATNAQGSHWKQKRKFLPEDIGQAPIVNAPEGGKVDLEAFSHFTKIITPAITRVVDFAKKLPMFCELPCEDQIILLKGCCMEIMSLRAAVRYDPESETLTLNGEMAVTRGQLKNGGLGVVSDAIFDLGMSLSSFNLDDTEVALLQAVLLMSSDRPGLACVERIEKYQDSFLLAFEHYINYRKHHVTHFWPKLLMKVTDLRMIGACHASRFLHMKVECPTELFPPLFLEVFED
In short: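 TR-UAS-bla GripTite HEK293 cells in 2% charcoal/dextran FBS medium; compounds 0.59 nM to 92 uM with T3 at 0.4nM final, 18 h at 37 C. Beta-lactamase read by CCF4 fluorescence (460/530 nm); Hill fits gave IC50 and efficacy.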

[12] = qHTS assay for small molecule agonists of the antioxidant response element (ARE) signaling pathway (AID 651741; active = well fitted activation curve with a large enough effect in the signal ratio; inconclusive = small, poorly fitted or top-dose-only effect, or effect the other way, or a change in a side signal; the % refers to the signal ratio; also: potency is read from the fitted curve at half-maximal effect); conditions: HepG2 ARE-bla reporter, beta-lactamase FRET ratio, 16 h; activation: at 96 µM (top of the series) unless noted
In short: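 Stably integrated ARE-beta-lactamase reporter HepG2 cells; 16 h compound incubation, 37 C; LiveBLAzer FRET substrate 2 h at room temperature; fluorescence intensity.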

[13] = qHTS assay for small molecule activators of the p53 signaling pathway (AID 651743; active = well fitted activation curve with a large enough effect in the signal ratio, not every such curve was filed as active; inconclusive = small, poorly fitted or top-dose-only effect, or a change in a side signal; the % refers to the signal ratio; also: potency is read from the fitted curve at half-maximal effect); conditions: HCT-116 p53RE-bla, beta-lactamase FRET ratio, 16 h; activation: stronger effect = higher value
In short: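 Following 16 hours of compound exposure at 37 C, HCT-116 cells bearing the p53RE-bla reporter were loaded with LiveBLAzer B/G FRET substrate for 2 hours at room temperature and fluorescence intensity was recorded.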

[14] = qHTS assay for small molecule activators of the nuclear factor-kappa B (NF-kB) signaling pathway (AID 651749; active = well fitted activation curve with a large enough effect in the signal ratio; inconclusive = small, poorly fitted or top-dose-only effect, or a change in a side signal; the % refers to the signal ratio; also: potency is read from the fitted curve at half-maximal effect); conditions: NF-kB-bla ME-180 cells, beta-lactamase FRET ratio, 16 h; activation: stronger effect = higher value
In short: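 In this qHTS format, compounds acting as activators increase NF-kB-driven beta-lactamase in ME-180 cells, measured as disrupted FRET after 16 hr exposure at 37C and 5% CO2.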

[15] = Cellular Toxicity (caspase-3) NIH 3T3 (AID 666; active = well fitted curve in the direction sought with a large enough effect; inconclusive = small, poorly fitted or top-dose-only effect, or another doubt; inactive = no such curve, though single readings can be large; an effect the other way counts as inactive or inconclusive;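 also: potency is read from the fitted curve at half-maximal effect; caspase signal read after 16 h compound exposure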)
In short: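 Cells were plated at 1000 per well and incubated 5 hr at 37°C, then compound was added for 16 hr. Caspase-Glo 3/7 reagent followed for 20 min at room temperature before luminescence was read.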

[16] = MultiTox-Fluor Cytotoxicity Assay - LYMP1-001 - Dead Cells (AID 946; active = well fitted curve in the direction sought with a large enough effect; inconclusive = small, poorly fitted or top-dose-only effect, or another doubt; inactive = no such curve, though single readings can be large; an effect the other way counts as inactive or inconclusive; also: potency is read from the fitted curve at half-maximal effect)
In short: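 Cytotoxicity as increased dead-cell protease fluorescence (bis-AAF-R110, 485/520 nm), read 60 min after MultiTox-Fluor reagent. Human lymphoblastoid line exposed 16 h; Hill-fitted AC50, with DMSO as 0% and 15 uM tetraoctylammonium bromide as 100%.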

[17] = MultiTox-Fluor Cytotoxicity Assay - LYMP1-002 - Dead Cells (AID 960; active = well fitted curve in the direction sought with a large enough effect; inconclusive = small, poorly fitted or top-dose-only effect, or another doubt; inactive = no such curve, though single readings can be large; an effect the other way counts as inactive or inconclusive; also: potency is read from the fitted curve at half-maximal effect; nearly all actives have a fitted effect of over 60% in size); conditions: LYMP1-002 lymphoblastoid cells, dead-cell protease fluorescence; cytotoxicity (dead cells): at 46.1 µM (top of the series)
In short: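 Cells were plated, rested 5 hr, then treated with compound dilution series for 16 hr at 37 C. After adding substrate reagent and 60 min at room temperature, dead-cell protease fluorescence gave concentration-response curves fitted by the Hill equation.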

[18] = Cell Viability - LYMP2-025 (AID 976; active = well fitted curve in the direction sought with a large enough effect; inconclusive = small, poorly fitted or top-dose-only effect, or another doubt; inactive = no such curve, though single readings can be large; an effect the other way counts as inactive or inconclusive;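 also: plate controls were DMSO only for no effect and tetraoctylammonium bromide control for full effect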)
In short: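 Acute cytotoxicity is scored as a concentration-dependent fall in intracellular ATP, measured by luciferase luminescence, in human lymphoblastoid LYMP2-025 cells exposed to compound for 24 hours at 37 C. AC50 values come from standard Hill fits.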

[19] = Cell Viability - LYMP2-006 (AID 978; active = well fitted curve in the direction sought with a large enough effect; inconclusive = small, poorly fitted or top-dose-only effect, or another doubt; inactive = no such curve, though single readings can be large; an effect the other way counts as inactive or inconclusive; also: % is scaled to controls: 0 for no effect and ±100 for the full control effect; nearly all actives have a fitted effect of over 60% in size)
In short: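 Human lymphoblastoid cells, 2500 per well, were preincubated 5 hr at 37 C, then exposed to compounds for 24 hr at 37 C in complete medium. Viability was read as intracellular ATP by CellTiter-Glo luminescence; AC50 from Hill-equation fits of qHTS concentration-response data.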

[20] = target: Androgen receptor (Homo sapiens) (UniProt P10275); assay: qHTS assay for small molecule antagonists of androgen receptor signaling (AID 588516; active = well fitted curve in the direction sought with a large enough effect in the signal ratio, with a control signal flat, not every such curve was filed as active; inconclusive = small, poorly fitted or top-dose-only effect, or effect the other way, or a change in a side signal; inactive = no such curve, though single readings can be large or run the other way; the % refers to the signal ratio; also: % is scaled to controls: 0 for no effect and ±100 for the full control effect); conditions: AR-UAS-bla HEK293, beta-lactamase ratio, antagonist mode, 16 h; activity change, negative = inhibition: at 76.8 µM (top of the series)
Sequence of UniProt P10275 (P10275 whole entry, looked up): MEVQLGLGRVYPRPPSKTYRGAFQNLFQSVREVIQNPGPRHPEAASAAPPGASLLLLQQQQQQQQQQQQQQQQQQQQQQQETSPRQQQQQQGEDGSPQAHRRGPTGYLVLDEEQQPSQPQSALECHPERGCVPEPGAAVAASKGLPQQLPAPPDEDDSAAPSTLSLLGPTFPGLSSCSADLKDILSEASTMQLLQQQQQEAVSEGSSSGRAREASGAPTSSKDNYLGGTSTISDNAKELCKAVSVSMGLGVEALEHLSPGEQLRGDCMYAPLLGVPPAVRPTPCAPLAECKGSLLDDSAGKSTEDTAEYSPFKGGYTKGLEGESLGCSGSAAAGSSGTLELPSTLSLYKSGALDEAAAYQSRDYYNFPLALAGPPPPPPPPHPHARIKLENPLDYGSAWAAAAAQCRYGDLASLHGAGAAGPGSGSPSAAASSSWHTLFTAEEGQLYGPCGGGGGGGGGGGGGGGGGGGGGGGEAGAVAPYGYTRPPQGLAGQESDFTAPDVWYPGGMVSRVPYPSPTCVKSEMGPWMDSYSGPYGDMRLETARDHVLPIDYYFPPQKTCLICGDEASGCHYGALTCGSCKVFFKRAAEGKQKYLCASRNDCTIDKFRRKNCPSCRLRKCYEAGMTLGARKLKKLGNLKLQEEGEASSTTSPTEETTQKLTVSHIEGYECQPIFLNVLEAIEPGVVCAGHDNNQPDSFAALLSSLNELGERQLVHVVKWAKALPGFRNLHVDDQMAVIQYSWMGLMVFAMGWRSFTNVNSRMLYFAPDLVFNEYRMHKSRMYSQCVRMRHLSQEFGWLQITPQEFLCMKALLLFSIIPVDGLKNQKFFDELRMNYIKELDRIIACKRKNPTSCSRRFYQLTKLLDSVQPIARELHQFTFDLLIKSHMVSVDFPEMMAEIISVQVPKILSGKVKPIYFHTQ
In short: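 Antagonist mode: inhibition of R1881-stimulated (10 nM final) bla reporter in GeneBLAzer AR HEK 293 cells, 16 h at 37C, compounds titrated. IC50 and efficacy from Hill-equation fits of 405/460–530 nm FRET ratios.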

[21] = target: Tumor necrosis factor (Homo sapiens) (UniProt P01375); assay: qHTS assay to identify small molecules that stimulate Tumor Necrosis Factor-alpha (TNF-alpha) secretion (AID 651757; active = well fitted curve in the direction sought with a large enough effect in the signal ratio; inconclusive = small, poorly fitted or top-dose-only effect, or a change in a side signal; inactive = no such curve, though single readings can be large or run the other way; the % refers to the signal ratio; also: 0% is about no effect); conditions: Human cells, HTRF 665/615 ratio; activation (TNF-alpha secretion): at 92.2 µM (top of the series)
Sequence of UniProt P01375 (P01375 whole entry, looked up): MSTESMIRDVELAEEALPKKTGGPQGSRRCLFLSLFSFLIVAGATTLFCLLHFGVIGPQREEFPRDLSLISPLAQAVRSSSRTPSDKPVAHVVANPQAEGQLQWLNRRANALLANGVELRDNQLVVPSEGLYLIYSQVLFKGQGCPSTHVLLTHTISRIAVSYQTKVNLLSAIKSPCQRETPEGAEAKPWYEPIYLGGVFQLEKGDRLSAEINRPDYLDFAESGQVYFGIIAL
In short: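 Human monocytic THP-1 cells are plated, treated with compound and held at 37 C for 17 hrs. Labeled anti-TNF-alpha antibody mixture is then added; after 3 hr at room temperature, TR-FRET signal reports secreted TNF-alpha.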

[22] = qHTS assay to identify small molecules that stimulate interleukin-8 (IL-8) secretion (AID 651758; active = well fitted activation curve with a large enough effect in the signal ratio; inconclusive = small, poorly fitted or top-dose-only effect, or effect the other way, or a change in a side signal; the % refers to the signal ratio; also: 0% is about no effect); conditions: HTRF ratio (665/615); activation: at 92.2 µM (top of the series)
In short: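 Compounds are added to THP-1 cells (2000 per well) and left 16 hrs at 37 C. A labeled anti-IL-8 antibody pair is then added, and IL-8 secretion is measured by time-resolved FRET after 1-3 hrs at room temperature.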

[23] = qHTS assay for small molecule agonists of the antioxidant response element (ARE) signaling pathway measured by Nrf2-dependant transcriptional activity (AID 720636; active = well fitted curve in the direction sought with a large enough effect in the repeat runs; inconclusive = weak or mixed curves; inactive = no such curve, though single readings can be large; an effect the other way counts as inactive or inconclusive; also: potency is read from the fitted curve at half-maximal effect)
In short: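 First, ARE-luc HepG2 cells attached for 6 hr at 37 C in 1% dialyzed FBS medium. Next, compound or DMSO was added and incubated 16 hr. Finally, ONE-Glo reagent was added and luminescence measured after 30 min.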

[24] = qHTS assay for small molecule antagonists of the retinoid-related orphan receptor gamma (ROR-gamma) signaling pathway - cell viability counter screen (AID 720652; active = well fitted curve in the direction sought with a large enough effect in the repeat runs; inconclusive = weak or mixed curves; inactive = no such curve, though single readings can be large; an effect the other way counts as inactive or inconclusive;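 also: potency is read from the fitted curve at half-maximal effect; compound exposure lasted 16 hr before ATP read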)
In short: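 Steps: seed CHO cells bearing TET-inducible ROR and ROR response element-luciferase; rest 5 hr at 37 C; add compound, then doxycycline; incubate 16 hr; add CellTiter-Glo and read luminescence as ATP-based viability.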
Tags tell the direction and shape of the fitted curve or compound fluorescence and quenching.

Question: With CC(C)[C@@H](Nc1ccc(C(F)(F)F)cc1Cl)C(=O)OC(C#N)c1cccc(Oc2ccccc2)c1 (stereo partly specified) as the compound, how does the activity, negative = inhibition [1] read?
Answer: inconclusive: -37.8%

Question: And the Potency [2]?
Answer: inconclusive [cytotoxic, side channel, partial curve, poor fit]

Question: And the Potency [3]?
Answer: inconclusive [side channel, falling, partial curve, poor fit]

Question: And the Potency [4]?
Answer: inconclusive [side channel, rising, partial curve, poor fit]

Question: And the activity change, negative = inhibition [5]?
Answer: inconclusive: -8.95%

Question: And the Potency [6]?
Answer: inconclusive [cytotoxic, side channel, partial curve]

Question: And the Potency [7]?
Answer: inconclusive [inhibitor, partial curve, poor fit]

Question: And the activity change, negative = inhibition [8]?
Answer: inconclusive: -16%

Question: What about the activation [9] of the same compound?
Answer: inconclusive: 9.93%

Question: And the max response [10]?
Answer: inconclusive: -45.6%

Question: And the Potency [11]?
Answer: inconclusive [cytotoxic, side channel, partial curve, poor fit]

Question: And the Potency [12]?
Answer: inconclusive [cytotoxic, side channel, single point]

Question: And the Potency [13]?
Answer: inconclusive [side channel, falling, single point]

Question: And the Potency [14]?
Answer: inconclusive [side channel, falling, partial curve]

Question: For O=[N+]([O-])c1c(Cl)c(Cl)c(Cl)c(Cl)c1Cl, which Potency [15] is on record?
Answer: active: 31.6 µM

Question: And the Potency [16]?
Answer: inconclusive [cytotoxic, partial curve]

Question: And the Potency [17]?
Answer: inconclusive [cytotoxic, partial curve, poor fit]

Question: What about the Potency [18] of the same compound?
Answer: inactive

Question: What about the Potency [19] of the same compound?
Answer: inactive

Question: What about the activity, negative = inhibition [1] of the same compound?
Answer: inconclusive: 38.5%

Question: And the activity change, negative = inhibition [20]?
Answer: inconclusive: -0.335%

Question: And the activity change, negative = inhibition [5]?
Answer: inconclusive: -49.2%

Question: What about the Potency [6] of the same compound?
Answer: inconclusive [activator, partial curve]

Question: And the activation [6]?
Answer: inconclusive: 13.9%

Question: What about the max response [10] of the same compound?
Answer: inactive: -5.68% and inconclusive: -61.1%

Question: And the Potency [11]?
Answer: inconclusive [side channel, falling, full curve, poor fit]

Question: And the Potency [12]?
Answer: active: 37.6 µM and active: 24.3 µM

Question: And the Potency [21]?
Answer: inactive

Question: And the activation [22]?
Answer: inconclusive: 5.56%

Question: And the Potency [23]?
Answer: inconclusive [activator, partial curve, poor fit]

Question: And the Potency [24]?
Answer: inconclusive [cytotoxic, single point]
